From the supplement of paper PMC3334620
Whole data set: some 33,000 sequences, median “E-score (-0.5 to 0.5)” near -0.011, cut for the highest 2% near 0.28. This is one part of the list.

Molecular target: T1, Gcr1 (UniProt P07261)
T1 sequence: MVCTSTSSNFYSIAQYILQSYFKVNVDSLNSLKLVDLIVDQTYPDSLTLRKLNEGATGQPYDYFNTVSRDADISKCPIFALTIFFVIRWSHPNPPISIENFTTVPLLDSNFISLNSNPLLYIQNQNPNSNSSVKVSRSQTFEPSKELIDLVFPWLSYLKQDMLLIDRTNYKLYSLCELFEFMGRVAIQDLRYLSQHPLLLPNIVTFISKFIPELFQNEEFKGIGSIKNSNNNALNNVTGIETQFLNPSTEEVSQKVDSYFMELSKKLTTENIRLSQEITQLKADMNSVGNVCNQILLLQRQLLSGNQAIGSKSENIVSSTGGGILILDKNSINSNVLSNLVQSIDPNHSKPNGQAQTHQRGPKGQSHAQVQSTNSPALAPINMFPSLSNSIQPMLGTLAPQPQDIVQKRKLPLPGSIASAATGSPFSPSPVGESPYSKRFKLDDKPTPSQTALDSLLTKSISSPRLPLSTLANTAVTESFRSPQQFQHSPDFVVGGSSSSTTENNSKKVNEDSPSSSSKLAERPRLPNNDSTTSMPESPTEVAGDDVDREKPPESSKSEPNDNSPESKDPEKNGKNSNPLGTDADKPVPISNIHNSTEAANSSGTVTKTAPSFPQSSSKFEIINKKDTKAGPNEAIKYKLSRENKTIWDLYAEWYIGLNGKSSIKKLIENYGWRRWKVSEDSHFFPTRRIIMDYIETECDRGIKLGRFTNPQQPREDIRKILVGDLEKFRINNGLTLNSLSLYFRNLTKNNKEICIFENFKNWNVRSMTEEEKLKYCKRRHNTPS
Test: PBM E-score (8-mer binding enrichment) (E-score (-0.5 to 0.5)); higher = stronger / more preferred TF binding; most listed sequences are background and not binding sites
Settings: protein concentration: 100 nM; construct: GST-full length
Method in brief: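 Universal all-10-mer Agilent arrays, double-stranded by primer extension on fresh or once-stripped slides, were probed with about 100-200 nM GST-tagged yeast transcription factors made by PURExpress. Fluorescent anti-GST detected bound protein, and masliner normalised the scans. E-scores from the Universal PBM Analysis Suite were given to each ungapped eight-base word pooled with its reverse complement.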

Row | Sequence | PBM E-score
1 | CGGTATAA | 0.0683
2 | CGTTAAGC | -0.0745
3 | GGCTTACC | -0.18
4 | AAAACACT | 0.0406
5 | CTTCACTC | -0.132
6 | GCTATCTA | -0.0201
7 | ACCTCTTC | 0.00428
8 | CTGTTGCA | -0.0353
9 | AGACTGGC | 0.00234
10 | AAAACGCC | -0.157
11 | GAGGGCCA | -0.137
12 | AGGCATCG | 0.0175
13 | AGGGACGC | 0.139
14 | ACCTGCGC | 0.0153
15 | GATTCTCA | 0.0363
16 | AGAACGTC | -0.123
17 | CCAAGTAC | 0.0611
18 | AACGAGAT | 0.031
19 | AGGCCCTC | -0.265
20 | ACGTTGGA | -0.087
21 | AGTCCCGC | -0.0582
22 | GTACTGGA | 0.235
23 | CAGCCTTC | -0.085
24 | AAGCTGTC | -0.142
25 | GAGTCTGC | 0.00367

Row | Sequence | PBM E-score
26 | GAACGTAA | -0.06
27 | CCCTAACA | 0.101
28 | CCTCTTTA | 0.119
29 | GTAGTGTA | -0.0351
30 | ATGGACAT | 0.022
31 | AACCCATC | -0.119
32 | CCCGTAAG | 0.113
33 | ACCATTTC | 0.0711
34 | CGTACAGC | -0.12
35 | CAGATCGG | 0.129
36 | GCGAGCCA | -0.204
37 | ACTCTGCA | -0.0157
38 | GCTAAAGC | -0.217
39 | CCTAGATC | -0.0364
40 | ATTATTGG | 0.0188
41 | GGCAAGAC | -0.199
42 | CGCCACCC | -0.0995
43 | TAAGTGAA | -0.0606
44 | GACCCAAA | 0.169
45 | ATCACCTG | -0.0857
46 | CCAATTGA | 0.0612
47 | CAAAATAC | 0.0518
48 | AGCGATAT | 0.0305
49 | GCCCTCCC | 0.0504
50 | ATGCACTA | -0.109

Row | Sequence | PBM E-score
51 | GTTATTCA | 0.175
52 | CAGTGTTA | -0.0217
53 | ATAATGTA | 0.0597
54 | GCGTGGCA | -0.183
55 | AACAGGCG | -0.0919
56 | CCGCTTGA | -0.137
57 | CAGTCATA | -0.11
58 | TAGGGCAA | -0.12
59 | ACCCGACC | -0.0716
60 | GATCGACC | -0.177
61 | CATGGACA | -0.175
62 | CAGCTATG | -0.265
63 | AAGGGCAA | -0.142
64 | CATTCAGC | 0.0123
65 | ATACCCCG | -0.107
66 | GATCAGAA | -0.0468
67 | AGTGACAG | -0.0775
68 | CTACAAAG | -0.0715
69 | CTACCCAA | 0.0568
70 | GTCGCGCA | 0.0621
71 | CATGTCCA | -0.0388
72 | AGTTTCTC | 0.00745
73 | AAATGTAA | 0.0136
74 | GGAAACCA | 0.136
75 | CAATCAAC | -0.0776

Row | Sequence | PBM E-score
76 | ACTTGTCG | 0.0982
77 | GGCCTGAA | -0.145
78 | ACTCTACG | -0.153
79 | ACAGCGTA | -0.121
80 | GAAGGACA | -0.0429
81 | AATCTGGC | 0.0826
82 | GATGCTCA | 0.115
83 | ATTCTGCG | 0.0393
84 | AAGTCGCG | 0.00184
85 | AACGAGCG | -0.0771
86 | ACAGTAAT | -0.139
87 | GCTCGACC | 0.00687
88 | CGGACTTC | 0.116
89 | TAAAATAA | 0.163
90 | CTACCGGA | 0.0625
91 | TCGGTTCA | -0.0382
92 | CACCTATC | 0.0711
93 | CACCTGAA | 0.143
94 | CTGCTTTA | 0.0199
95 | GGACAGTA | -0.172
96 | AAATAACT | 0.166
97 | CGACACCG | -0.0892
98 | AGCTATGG | -0.122
99 | CATTAAGG | -0.0672
100 | TGGACGAA | -0.123

Row | Sequence | PBM E-score
101 | ACGCCCGT | 0.0469
102 | CGTTGAGC | -0.289
103 | ATACCATA | 0.0418
104 | CTGGTGCC | 0.352
105 | GGAGTGGA | 0.248
106 | CAACCTAA | 0.172
107 | GAAAGGCA | 0.105
108 | CCCTGGTA | -0.0696
109 | GTCGACGA | -0.144
110 | TACGTCCA | 0.00987
111 | ACGGCGAA | 0.0481
112 | CATGAAAC | -0.0569
113 | ATCTGTAC | 0.0702
114 | AGTGATCG | -0.254
115 | ATGAACGG | -0.199
116 | ACTGTATA | 0.064
117 | CTAGCGTC | 0.238
118 | CTCGGTGA | -0.154
119 | CTGACGTA | 0.0205
120 | CCCTCAAG | -0.0631
121 | AGGATCAC | -0.195
122 | GTATAGAA | -0.00359
123 | CAAAGAAC | 0.00036
124 | CCATCAGA | -0.175
125 | ACCTCAAC | -0.0951

Row | Sequence | PBM E-score
126 | ACGCGATG | -0.0224
127 | CCTTTCAA | 0.00921
128 | CCAGAAGA | 0.187
129 | GCGCAGAC | -0.167
130 | CTCCCGAC | -0.244
131 | AAGGCTTC | 0.0757
132 | ACAGCCCC | -0.169
133 | CACCACAG | 0.0753
134 | CCCTGACC | -0.0975
135 | ACCAAACA | 0.0428
136 | CGACTCTA | 0.0124
137 | CCTACAAG | -0.073
138 | GAGAGATA | 0.0806
139 | ATGATAGA | -0.066
140 | GGGTGAGA | -0.254
141 | CAGAAATG | -0.116
142 | CGGTTCAG | -0.114
143 | CGATTGAA | -0.174
144 | TAGCGCGA | 0.0928
145 | AGGCCACG | -0.25
146 | CTGTTTGC | -0.14
147 | CTACATGA | 0.114
148 | CGATAGTA | -0.0965
149 | ACGGGAAC | -0.0291
150 | ATTGTTCA | -0.0716

Row | Sequence | PBM E-score
151 | GACTTTAC | -0.0926
152 | CTAGGCGA | 0.035
153 | AGCGTTAA | -0.099
154 | ACGTGTTA | -0.0746
155 | AGATAGCA | 0.131
156 | AGAAGGAA | 0.0447
157 | CCTGCTGC | -0.0427
158 | ACTAAGCA | -0.271
159 | AGGTTTCA | 0.149
160 | ACTGAGTG | -0.08
161 | GAAGTGTC | -0.00022
162 | GTTTCGCA | 0.166
163 | CATATACC | -0.121
164 | GGGGCAGA | -0.0148
165 | ACCCGCGT | 0.106
166 | TACTATCA | -0.185
167 | ACGCACCA | -0.0574
168 | AATCACTC | 0.0506
169 | CATTCTAA | 0.108
170 | ATCAGAGA | -0.0461
171 | AAAACAGA | 0.0751
172 | CGCTCGCA | 0.128
